Measurements published in US20210340238A1, “TGFß1 INHIBITORS AND USE THEREOF” (Scholar Rock, Inc., priority 2018, published 2021).

How the values were obtained:
Design in all cases: species or system human
[1] = target: Matrix-associated proTGFβ1; experiment: Octet binding, ECM average of hLTBP1 and hLTBP3 complexes; conditions: average KD of (B) and (C), read-out: (D) ECM AVRG
Description: (§1) Column (A) of the table provides monoclonal antibodies with discrete amino acid sequences. […] Columns (B), (C), (E) and (F) provide affinities of each of the listed antibodies, measured in KD, towards the antigen complex as indicated, respectively. […] Average KD values calculated from (B) and (C) are shown in the corresponding column (D), which collectively represents affinities of the antibodies to ECM- or matrix-associated proTGFβ1 complexes. Similarly, Average KD values calculated from (E) and (F) are shown in the corresponding column (G), which collectively represents affinities of the antibodies to cell-surface or cell-associated proTGF complexes. Finally, relative ratios between the average KD values from columns (D) and (G) are expressed as fold bias” in column (H). Thus, the greater the numerical of column (H) is, the greater bias exists for the particular antibody, when comparing binding preferences of the antibody for matrix-associated complexes to cell-surface complexes. This is one way of quantitatively representing and comparing inherent bias of antibodies to their target complexes. Such analyses may be useful in guiding the selection process for a candidate antibody for particular therapeutic use.

[2] = tested on: Matrix-associated proTGFβ1 vs Cell-associated proTGFβ1; experiment: Octet binding, matrix vs cell bias (G/D); conditions: ratio of cell average KD to ECM average KD
Description: as §1

Cell-associated proTGFβ1 = experiment: Octet binding, cell average of hGARP and hLRRC33 complexes; conditions: average KD of (E) and (F), read-out: (G) Cell AVRG
Description: as §1

B1: Ab10: monoclonal antibody binding proTGFβ1 complexes; VH SEQ ID NO: 216, VL SEQ ID NO: 217 (antibody, V domains shown)
VH: EVQLLESGGGLVQPGGSLRLSCAASGFTFRNYAMSWVRQAPGKGLEWVSSISGSGGATYYADSVKGRFTISRDNSKNTLYLQMNSLRAEDTAVYYCARVSSGHWDFDYWGQGTLVTVSS
VL: DIQMTQSPSSLSASVGDRVTITCQASQDISNSLNWYQQKPGKAPKLLIYDASNLETGVPSRFSGSRSGTDFTFTISSLQPEDIATYYCQQAPNLPFTFGGGTKVEIK
[1]
  Kd: 0.29 nM
[2]
  (H) G/D (fold bias): 19.38 fold
Cell-associated proTGFβ1
  Kd: 5.63 nM
